In the antibiotic and cytotoxicity screens of Wong et al. (2023):
This is one part of the list.

Test system: HSkMC (human skeletal muscle cells)
Assay: cytotoxicity call (relative viability < 0.9)
Details: 10 µM

SMILES	cytotoxicity call
C[C@H](CO)N1C[C@H](C)[C@@H](CN(C)C(=O)Nc2ccc(C(F)(F)F)cc2)OCc2cnnn2CCCC1=O	inactive
O=C(C[C@@H]1C[C@@H]2c3cc(NC(=O)NC4CCCC4)ccc3O[C@@H]2[C@@H](CO)O1)NCc1ccc(Oc2ccccc2)cc1	inactive
C[C@@H]1CN([C@H](C)CO)C(=O)Cc2cc(NC(=O)C3CC3)ccc2O[C@@H]1CN(C)C(=O)NC1CCCCC1	inactive
C[C@H]1CN([C@@H](C)CO)C(=O)CCCn2nncc2CO[C@@H]1CN(C)S(=O)(=O)c1ccc2c(c1)OCCCO2	inactive
CC#CCO[Si](C#CCCCCCC)(C(C)C)C(C)C	inactive
Cc1noc(C)c1NC(=O)Nc1ccc2c(c1)C(=O)N([C@H](C)CO)C[C@@H](C)[C@H](CN(C)S(=O)(=O)c1ccccc1)O2	inactive
Cc1o[nH]c(=O)c1CC[C@@H](N)C(=O)O	inactive
Cc1noc(C)c1NC(=O)Nc1ccc2c(c1)CC(=O)N([C@H](C)CO)C[C@@H](C)[C@@H](CN(C)S(=O)(=O)c1cccs1)O2	inactive
C[C@@H](CO)N1C(=O)[C@@H]2[C@H]3C(=O)OCCC=C[C@H]3O[C@]23C=CCN(CCN2CCOCC2)C(=O)[C@@H]13	inactive
CC(=O)N1C[C@@H](NC(=O)c2nccn2C)[C@@H]2OCCC[C@@H]21	inactive
COc1ccc(NC(=O)N(C)C[C@@H]2Oc3c(NS(=O)(=O)c4cn(C)cn4)cccc3C(=O)N([C@@H](C)CO)C[C@H]2C)cc1	inactive
O=C(C[C@@H]1C=C[C@@H](NS(=O)(=O)c2ccc(F)cc2)[C@@H](CO)O1)N1CCC(Cc2ccccc2)CC1	inactive
O=C(Nc1cccnc1)c1nc2ncccn2n1	inactive
C[C@H](CO)N1C[C@H](C)[C@H](CN(C)C(=O)Nc2ccc3c(c2)OCO3)Oc2c(NC(=O)c3cnccn3)cccc2C1=O	inactive
COc1ccc(NC(=O)Nc2ccc3c(c2)C(=O)N([C@H](C)CO)C[C@@H](C)[C@@H](CN(C)Cc2ccc4c(c2)OCO4)OCCCC[C@@H](C)O3)cc1	inactive
COc1ccc(S(=O)(=O)N(C)C[C@H]2OCCCC[C@H](C)Oc3ccc(NC(=O)Nc4c(C)noc4C)cc3C(=O)N([C@H](C)CO)C[C@H]2C)cc1	inactive
COCC(=O)N1CC[C@]2(CC1)CN([C@H](CO)c1c2c2ccc(cc2n1C)OC)C(=O)Cc1ccccc1	inactive
CC(C)NC(=O)[C@@H](C)n1ncn2cccc2c1=O	inactive
C[C@H]1CN([C@@H](C)CO)C(=O)c2cc(-c3ccncc3)cnc2O[C@@H]1CN(C)S(=O)(=O)c1ccccc1	inactive
C[C@H]1CN([C@@H](C)CO)C(=O)c2cc(NC(=O)CCCN(C)C)ccc2O[C@@H]1CN(C)C(=O)Nc1ccc(F)cc1	inactive

SMILES	cytotoxicity call
C[C@H]1CN([C@@H](C)CO)C(=O)Cc2cc(NC(=O)CCC(F)(F)F)ccc2O[C@H]1CN(C)S(=O)(=O)c1ccccc1	inactive
C[C@@H]1CN([C@H](C)CO)C(=O)c2cccc(NC(=O)Nc3ccc(F)cc3)c2O[C@@H]1CN(C)Cc1ccc(Oc2ccccc2)cc1	inactive
C=CC[C@@H](CC(=O)N(CCO)Cc1ccccc1)C(=O)N[C@H](COC(=O)[C@@H](CC=C)Cc1ccc(F)cc1)C(C)(C)C	inactive
COc1ccc(CN(C)C[C@@H]2OCCCC[C@H](C)Oc3ccc(NC(=O)NC4CCCCC4)cc3C(=O)N([C@@H](C)CO)C[C@H]2C)cc1	inactive
COCC(=O)N1C[C@@H](C)[C@@H](OC)CN(C)C(=O)c2cc(NC(=O)c3ccc(OC)cc3)ccc2OC[C@H]1C	inactive
NCC1CCSCC1	inactive
C[C@H]1CCCCO[C@@H](CN(C)Cc2ccc(C(=O)O)cc2)[C@@H](C)CN([C@@H](C)CO)C(=O)c2cc(NC(=O)Cc3ccccc3)ccc2O1	inactive
C[C@@H]1CCCCO[C@H](CN(C)S(=O)(=O)c2cccs2)[C@@H](C)CN([C@H](C)CO)C(=O)c2cc(NC(=O)Cc3ccccc3)ccc2O1	inactive
CC(=O)Oc1ccc2c(C)cc(=O)oc2c1	inactive
C[C@H](CO)N1C[C@H](C)[C@@H](CN(C)C(=O)NC2CCCCC2)Oc2c(NC(=O)C3CC3)cccc2C1=O	inactive
C[C@@H]1CN([C@H](C)CO)C(=O)c2cccc(NC(=O)Nc3ccccc3)c2O[C@@H]1CN(C)C(=O)Nc1ccc(C(F)(F)F)cc1	inactive
C[C@@H]1CCCCO[C@@H](CN(C)C(=O)CCCN(C)C)[C@H](C)CN([C@@H](C)CO)C(=O)c2cc(NC(=O)Nc3cccc4ccccc34)ccc2O1	inactive
NNC(=O)C1CCCC1	inactive
O=C(CCCCCCC(=O)Nc1ccccc1)NO	inactive
COc1cccc(S(=O)(=O)Nc2ccc3c(c2)OC[C@H](C)N(C(=O)Cc2cccnc2)C[C@@H](C)[C@H](OC)CN(C)C3=O)c1	inactive
Cc1noc(C)c1NC(=O)Nc1ccc2c(c1)CC(=O)N([C@@H](C)CO)C[C@@H](C)[C@@H](CN(C)Cc1ccc(C(F)(F)F)cc1)O2	inactive
COc1cccc(NC(=O)N(C)C[C@@H]2Oc3cc(C#CC4(O)CCCC4)ccc3S(=O)(=O)N([C@H](C)CO)C[C@H]2C)c1	inactive
C=CCNC(=O)[C@H]1[C@@H]2C(=O)O[C@@H](c3ccccc3)[C@@H](c3ccccc3)N2[C@@H](c2ccccc2OCCO)[C@]12C(=O)Nc1ccc(C#CC3=CCCCC3)cc12	active
CC(C)NC(=O)Nc1ccc2c(c1)CC(=O)N([C@@H](C)CO)C[C@H](C)[C@@H](CN(C)S(=O)(=O)c1cn(C)cn1)O2	inactive
C[C@@H]1CN([C@H](C)CO)C(=O)c2cc(NS(=O)(=O)c3ccccc3)ccc2O[C@@H](C)CCCCO[C@H]1CN(C)Cc1ccccc1	inactive
